The results in this text go back to the supplement of paper PMC11417369.

Some of the results follow.

This test deals with PfSIP2 AP2 domain 1 (GST-tagged). As to the kind of experiment: gcPBM binding intensity (ln(normalized median fluorescence intensity)); higher = stronger DNA binding. The gist of the method:
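An Agilent 4 × 180k array carrying primer-extended double-stranded 36-bp intergenic genomic probes and negative controls received GST-tagged P. falciparum DNA-binding domains expressed in E. coli, about 25 μg on average, for 1 h. The binding buffer contained 1× PBS, 1% milk, 0.2 mg/ml BSA, 0.5% salmon testes DNA and 0.03% Triton X-100. Binding intensity is the top Masliner-normalised natural-log median intensity across replicate spots of either probe orientation, read after Alexa488 anti-GST antibody staining and a 488 nm scan.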
As to “AAGAAAAAAAAAAAAAAAAAAAAAAAAAATTTATGA [TGCATGCA_negctrl_site294]”, the “gcPBM binding intensity (ln)” value came out at 6.77.
Next, “CAGTTATTTTAATGTGGTACACAATTTTAAAATTAT [XGTACX_site8571]”: 7.17.
Take “TGAAATGATATATAAACACACATATATAAATATGTA [CACACA_site7616]”: the “gcPBM binding intensity (ln)” value worked out at 6.76.
Next, “AAATATAATTTGCGATGTACACATATATATTTATTT [XGTACX_site1568]”: 6.76; “ATATAAAATGAACATAGTACTTTTTATATATTTTAA [XGTACX_site7461]”: 6.77; “TACCTATACCTATACACACACACACGGAAATAAATA [CACACA_site6750]”: 7.56.
For the sequence “AATTTTATAAAAAGTAGTACATATCAAACACCTTGA [XGTACX_site2297]”, the “gcPBM binding intensity (ln)” value came to 7.13.
As for “TGACTTTTTTTTTTTTTTTTTTTTTTTTATCTTTTT [CACACA_negctrl_site481]”, the “gcPBM binding intensity (ln)” value was 6.81.
Next, “TTATGATTATAACGTTTTGACATTAGGCATATATAT [CACACA_negctrl_site1396]”: 7.2.
Consider “TATATACCACATTGTTGTACGACACATTTACATTTT [XGTACX_site8370]”, for which the “gcPBM binding intensity (ln)” value came out at 7.26.
The figure for “ACTGTCGTTTTAAAGAGTACATAAAATATTAAATTA [XGTACX_site3589]” is 7.25; for “ATGTCTTTGAAAAAAAGTACTTAAAATTATAAAAAT [XGTACX_site147]” it is 7.2; for “TTCTTTTAAAGGTATACATGCGCATGGATTTTTCAT [TGCATGCA_site223]” it is 7.02.
Next, “TCAAAGCACAGATACACACACATATATATATATATA [CACACA_site287]”: 9.16; “AATTAAAAAATTATCACACATATATATATATATATA [CACACA_site5789]”: 9.53.
Next, “AAAACTATTAATGCAAAAAATAAAATATAATAATAA [XGTACX_negctrl_site524]”: 6.77; “ATTCTGAATGTTATGCGTACATATTAATCCTATTTA [XGTACX_site1216]”: 6.97; “TGTAATAATTATTGCACGCACACAAAAACCTATAGA [CACACA_site2932]”: 7.61.
In the case of “TAAGGTTCATTAAAGTGTACACATAAATACCGTAAC [XGTACX_site8212]”, the “gcPBM binding intensity (ln)” value stood at 7.3.
Next, “AAGTAAATATAATAAGGTACACATAAATAAATAAAT [XGTACX_site1740]”: 7.06; “GGAAACACGATATATACACACATATTTATATTTATA [CACACA_site6250]”: 7.07; “TCCAAATAAATATATTGTACAGAATTATTGATACCT [XGTACX_site327]”: 6.7.
Next, “ATGTTGTTATAAAGAGTGCAACGTATATGTATCCTT [GTGCAC_site9935]”: 9.15; “AGAAAAGGAAAATAAACATGCAAAAATAATATTAAA [TGCATGCA_site337]”: 6.87; “TAAACATTGTAAAGGAGTACAAAATTTTTTTTATGA [XGTACX_site7757]”: 6.78.
The figure for “AATAATAAAAAATACACACACATATATATATATTAC [CACACA_site3464]” is 7.12; for “TCTTACAAAAAACAAACAGAGAAAAATATAAGGAAA [XGTACX_negctrl_site520]” it is 6.88; for “CATACACAAGAAAATTCACACACACCCATATATATA [CACACA_site9288]” it is 7.73.
Turning to “AACATACAGAAACACACACACACACCCACACCCACA [CACACA_site493]”, the “gcPBM binding intensity (ln)” value is 7.07.
The figure for “TTTTTTTTTTTGTATCGTACATTTATAATGTTTATA [XGTACX_site6804]” is 6.88; for “TTTTTTTCATATAACACACACACAAAAATAATGTGG [CACACA_site3688]” it is 7.01.
The figure for “AAGTTAACAATATGAAGTACAAATGAAAAAAAAAAA [XGTACX_site666]” is 7.09; for “ATATATATATATCATAGTACACATATGTGTCTCGTG [XGTACX_site774]” it is 7.87.
Next, “TTGTTATAGAAGCATTCACACACACCCATACATACA [CACACA_site8414]”: 7.29.
Take “ATATATATTTATTTATGTACGAATAAATTTACGAAT [XGTACX_site5190]”: the “gcPBM binding intensity (ln)” value was 7.09.
The figure for “TTAATAGGTCGAAGTAGTACATAAAAATATATATAT [XGTACX_site5960]” is 8.1; for “AATATCATTATATAAGTGCATTTTTTAAAAGATAAA [GTGCAC_site9479]” it is 9.12; for “AAATTAAAAAGAGCTTGTACAGATGTATACATAATA [XGTACX_site3882]” it is 6.86.
The figure for “TTTATAATTCTTACAACACACAATGTACATTTATAT [CACACA_site1261]” is 7.06; for “TATATGAAGCTATAGACACACATATAAAAATAGAAT [CACACA_site1313]” it is 7.18.
Next, “AATTTATATGTTTTGTGTACACAATTTATTAAATTA [XGTACX_site6448]”: 7.36.
For “TACATACAGATATATACACACATATAAAATATAGAT [CACACA_site6319]”, the “gcPBM binding intensity (ln)” value is 6.81.
Consider “ATTATATATAAATATACACACATATATAAAATACAT [CACACA_site5298]”, for which the “gcPBM binding intensity (ln)” value was 7.02.
Next, AAGAGAAAAATATGGTTGCACTAAAAATATATATTT: 7.64; TAAAAAATTAATAAAGTGCATAAATATTACAATATT: 8.14; “TTTTCTAAATATTATAGTACTCTTAATAATATTAAC [XGTACX_site4222]”: 6.93.
Next, “TTAACAAAATATAGCACACATAAATATATATTTATG [CACACA_site351]”: 7.17.
The figure for “ATTCATATATTTATTGCATGCAAAGTAAAATAAATA [TGCATGCA_site307]” is 6.97; for “GACATATTAGAAGGGTGTACATACTTTTAATCATTT [XGTACX_site1698]” it is 7.08; for “AATATTAAAATATAAACACACAAAATTCAATTATAT [CACACA_site5971]” it is 6.96.
For “TACATATATATATGTATATATATATATATATAAATA [XGTACX_negctrl_site351]”, the “gcPBM binding intensity (ln)” value worked out at 7.38.
Next, “AAATGTGCATTATGTTGTACAGTCGAAATTTTTTTT [XGTACX_site3812]”: 7.28.
The figure for “ACATAACTGATATATACACACAATACAAATATAGAT [CACACA_site7328]” is 7.07; for “ATGAATAAATGAACATGTACATATATATATATATTA [XGTACX_site5005]” it is 7.37.
Turning to “TAATATTTTTATTATTAGAATTGTATATGTTTAATA [CACACA_negctrl_site1833]”, the “gcPBM binding intensity (ln)” value stood at 6.77.
The figure for “CATATATCATAAATATGTACGAAATAAAAGAATCAT [XGTACX_site942]” is 7.07.
For “ATAAAAGGAATATTTGCATGTGGTAGTACATAACAT [TGCATGCA_site978]”, the “gcPBM binding intensity (ln)” value is 7.71.
The figure for “TTTTCTTACTATTGTAGTACAATATTATATTCTTTT [XGTACX_site1925]” is 7.15.
The figure for “TATAAATATGTATATACACACTTTTAATATTCATAA [CACACA_site7856]” is 6.92; for “TGCGTATTCTTATTAGGTACACATATTCGTGATAAT [XGTACX_site5681]” it is 6.99.
For “GATTTATATATATAAAATAATTGAATATTTTCTTTT [CACACA_negctrl_site801]”, the “gcPBM binding intensity (ln)” value was 6.77.
Take “TAATTTGAAAAATTGTGTACTCATAAAATAAATAAA [XGTACX_site2138]”: the “gcPBM binding intensity (ln)” value was 7.54.
The figure for “ATAAAAAAATAAAACACACACATATAGATTATAGAT [CACACA_site7343]” is 7.
Next, “ATAGATGATATACGTAAACACACAAATAAAAAAAAT [CACACA_site9095]”: 7.15; “TTTATTTTTCATAATTGTACAAAAATAAATGGAAAC [XGTACX_site5144]”: 7.5.
Next, “TACAAATATAGACACACACACATATATATATATATA [CACACA_site585]”: 9.72.
With “TATTATATATTAAATGCATGTAAAAATAATATTAAA [TGCATGCA_site643]”, the “gcPBM binding intensity (ln)” value came to 7.02.
Next, “ATATTATAATAAATGTGTACATATTGTAGAAATATT [XGTACX_site8101]”: 6.97.
Next, “AATTATTTACCCTATACACACAAAACACGCTAAAAA [CACACA_site1211]”: 7.24; “ATTTTGTGCGCACACACATGCAAAAAGAAATATGAT [TGCATGCA_site261]”: 8.77; “AAAGAGAGTATCTAATGTACGTATGTATGTATATAT [XGTACX_site1780]”: 7.4.
The figure for “ATCGTGAATAATATCTGTACATATGAACACATATAT [XGTACX_site952]” is 7.19.
Take “TATGACCTTAGAAATTGTACAAGAAAAAATGTTACA [XGTACX_site7084]”: the “gcPBM binding intensity (ln)” value amounted to 7.08.
The figure for “ATATAAAATACATGGGTGCAATATATTAAACAAATA [GTGCAC_site9421]” is 10.8; for “GTTATAAATAAATACACACATACAAAAATATGACGT [CACACA_site1154]” it is 6.94.
As for “TCACATACATGAAAATGTACTTTTATAATTCCATAA [XGTACX_site1836]”, the “gcPBM binding intensity (ln)” value turned out to be 7.01.
For the sequence “TAAATAATTTCACGAATGACAAAGATATAATAAGTT [CACACA_negctrl_site1430]”, the “gcPBM binding intensity (ln)” value amounted to 6.98.
For the sequence “TCTGTAAATACGTGCACACACAAATCACAAATGTGA [CACACA_site330]”, the “gcPBM binding intensity (ln)” value stood at 9.89.
Next, “TAAAGGTGAACAATACGTACATAAGAACTTATGAGG [XGTACX_site4216]”: 6.92; “ATAAATACACACAAGTGTACATACTTCTATAAATAT [XGTACX_site1845]”: 7.03.
“TTTCCATATATAGAACGTACAAAGATCTTTGTTACT [XGTACX_site8972]”: the “gcPBM binding intensity (ln)” value was determined as 7.02.
Next, “ATACATATATATATGTGTACATATTATATATACATA [XGTACX_site8420]”: 7.17.
Turning to “TATATATGGTATAATTGTACTAACGCCAACTATACC [XGTACX_site5853]”, the “gcPBM binding intensity (ln)” value was found to be 7.06.
Next, “TTTTTTTTTATGTGCACACAAAAGATGCTTATATTT [CACACA_site2348]”: 9.07; “TGCATATACATATGTAGTACAATAATTTGAAAAAAA [XGTACX_site5239]”: 7.08; “TATATATATTTATACACACAAACATAATACTACTTA [CACACA_site2022]”: 7.25.
Next, “TAGCTTTTGCCTTTTTTTAAAAAAAAATAAATAAAT [TGCATGCA_negctrl_site242]”: 6.68; “TTATTATTTTATAACACACACATATAGATTATAGCT [CACACA_site6787]”: 6.95; “ATATATATATATATAAAGTGAAGTATGAGGGAAATA [XGTACX_negctrl_site497]”: 9.37.
